# Laboratory results as given in the supplement of paper PMC7826260.
# The list shows a part of the results. Viral Rep nickase domains cut single-stranded DNA in vitro at 3 µM enzyme and 37 °C for 1 h; the strands have 90 letters, of which the middle is given. Numbers give uncut DNA relative to the enzyme-free pool, as log2; uncut sequences lie near 0, cut ones below; no hit call is given. Shares of all reads are compared; where an enzyme cuts many sequences, the uncut ones exceed 0.
# Columns and labels:
# Assay in all cases: uncleaved DNA left, log2 of reads against the no-enzyme library (log2 ratio); higher = less cleavage (more negative = more Rep cleavage of the k-mer); sequences stand for … in CTCGTCCG…ACCGGAGA
# [1] = tested on: T1, Rep nickase domain of Muscovy duck circovirus
# T1 sequence (residues 1-111 of Rep, tag left off): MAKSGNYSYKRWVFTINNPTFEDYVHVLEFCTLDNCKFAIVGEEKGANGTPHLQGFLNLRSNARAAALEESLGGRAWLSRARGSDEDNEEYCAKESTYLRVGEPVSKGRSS
# Method: (§1)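 A pool of 90-nt single-stranded DNAs with seven random bases just before the constant AC of the nick site (name = the seven bases) was cut by 3 µM recombinant His6-SUMO-tagged Rep nickase domain (300 nM DNA, 50 mM HEPES pH 8.0, 50 mM NaCl, 1 mM MnCl2, 1 h, 37 °C, three replicates). Uncut DNA was amplified and sequenced.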
# [2] = tested on: T2, Rep nickase domain of banana bunchy top virus
# T2 sequence (residues 1-94 of Rep, tag left off): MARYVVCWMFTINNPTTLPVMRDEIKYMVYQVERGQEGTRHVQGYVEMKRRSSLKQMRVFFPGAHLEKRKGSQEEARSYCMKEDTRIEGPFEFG
# Method: as §1
# [3] = tested on: T3, Rep nickase domain of cabbage leaf curl virus
# T3 sequence (residues 1-116 of Rep, tag left off): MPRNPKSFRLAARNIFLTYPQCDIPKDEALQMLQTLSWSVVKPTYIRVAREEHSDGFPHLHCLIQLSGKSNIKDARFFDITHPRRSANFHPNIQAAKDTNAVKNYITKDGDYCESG
# Method: as §1
# [4] = tested on: T4, Rep nickase domain of chickpea chlorotic dwarf virus
# T4 sequence (residues 1-124 of Rep, tag left off): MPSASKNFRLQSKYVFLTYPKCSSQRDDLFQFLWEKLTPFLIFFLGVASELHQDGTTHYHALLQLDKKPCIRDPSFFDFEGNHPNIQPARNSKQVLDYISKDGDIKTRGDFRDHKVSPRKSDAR
# Method: as §1
# [5] = tested on: T5, Rep nickase domain of faba bean necrotic yellows virus
# T5 sequence (residues 1-98 of Rep, tag left off): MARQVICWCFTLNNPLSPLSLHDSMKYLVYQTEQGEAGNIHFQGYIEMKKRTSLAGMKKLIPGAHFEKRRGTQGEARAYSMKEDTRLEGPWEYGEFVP
# Method: as §1
# [6] = tested on: T6, Rep nickase domain of maize striate mosaic virus
# T6 sequence (residues 1-117 of Rep, tag left off): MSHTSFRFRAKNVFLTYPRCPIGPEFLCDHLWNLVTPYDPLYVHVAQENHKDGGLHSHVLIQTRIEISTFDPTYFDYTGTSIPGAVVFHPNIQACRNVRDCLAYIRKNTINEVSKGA
# Method: as §1
# [7] = tested on: T7, Rep nickase domain of porcine circovirus 2
# T7 sequence (residues 2-116 of Rep, tag left off): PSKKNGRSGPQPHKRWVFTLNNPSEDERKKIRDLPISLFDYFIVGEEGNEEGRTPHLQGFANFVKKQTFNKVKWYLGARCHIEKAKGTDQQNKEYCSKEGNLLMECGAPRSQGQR
# Method: as §1
# [8] = tested on: T8, Rep nickase domain of tomato golden mosaic virus
# T8 sequence (residues 1-124 of Rep, tag left off): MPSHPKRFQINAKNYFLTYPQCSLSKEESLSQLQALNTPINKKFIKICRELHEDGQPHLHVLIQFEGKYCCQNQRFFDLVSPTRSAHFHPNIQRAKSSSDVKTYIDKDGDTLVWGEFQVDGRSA
# Method: as §1
# [9] = tested on: T9, Rep nickase domain of tomato yellow leaf curl virus
# T9 sequence (residues 1-136 of Rep, tag left off): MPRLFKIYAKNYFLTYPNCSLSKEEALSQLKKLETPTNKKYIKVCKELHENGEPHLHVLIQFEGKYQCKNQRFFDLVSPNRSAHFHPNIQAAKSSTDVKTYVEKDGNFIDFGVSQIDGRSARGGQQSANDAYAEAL
# Method: as §1
# [10] = tested on: T10, Rep nickase domain of wheat dwarf virus
# T10 sequence (residues 1-137 of Rep, tag left off): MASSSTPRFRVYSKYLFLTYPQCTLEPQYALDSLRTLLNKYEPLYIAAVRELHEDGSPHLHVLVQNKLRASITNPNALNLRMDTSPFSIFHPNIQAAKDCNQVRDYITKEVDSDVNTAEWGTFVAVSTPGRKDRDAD
# Method: as §1
Sequence,uncleaved DNA left (log2) [1],uncleaved DNA left (log2) [2],uncleaved DNA left (log2) [3],uncleaved DNA left (log2) [4],uncleaved DNA left (log2) [5],uncleaved DNA left (log2) [6],uncleaved DNA left (log2) [7],uncleaved DNA left (log2) [8],uncleaved DNA left (log2) [9],uncleaved DNA left (log2) [10]
CTCGCCT,-0.0329,-0.02,-0.127,-1.54,-0.0023,-0.528,-0.464,-0.0157,-0.0715,-0.215
TGCCTTG,-0.125,-0.0923,-0.159,-0.788,-0.0282,-0.552,0.0621,0.0448,-0.0484,0.00407
ACAAGAT,0.0908,0.0575,-0.072,-0.00215,0.0881,-0.147,0.15,0.099,0.0314,-0.000515
GCTGCCA,-0.111,0.0698,0.0278,0.175,-0.0623,0.325,0.0583,0.0465,-0.0411,-0.0451
CTATGAA,-0.171,0.0945,-0.0188,-0.239,0.107,-0.771,-0.0976,0.114,0.0425,-0.0518
CGACATA,0.137,0.18,0.151,0.626,0.0374,1.27,0.141,-0.0621,0.0597,0.264
CATTAGA,-0.0619,-0.144,-0.636,-0.8,-0.0348,-1.31,-0.00367,-0.0574,-0.0352,-0.0957
AAGCCCA,-0.118,-0.0216,-0.00265,-1.48,-0.0628,0.0695,-0.404,0.0181,-0.0818,0.0254
ATGCTTT,0.142,0.0351,-0.181,-1.89,0.0559,-0.783,-0.514,0.0492,0.0218,-0.0184
TACCTGG,0.132,0.0893,0.232,0.332,0.0724,0.00523,0.0574,0.177,0.0966,0.23
GGTAAAA,0.115,0.167,0.6,1.43,0.0607,1.91,0.274,0.159,0.266,0.239
TTGGCGC,0.206,0.00414,-0.66,0.0712,0.093,-0.793,0.154,0.0811,0.043,-0.11
TATAAAA,-0.0249,0.0339,-0.0314,-0.543,0.017,-0.401,0.0711,0.0937,-0.1,0.0726
CTACCGG,-0.183,-0.046,0.327,0.973,-0.0618,1.39,-0.116,-0.0542,-0.108,0.00468
CGGGACA,-0.0953,-0.0297,0.769,1.99,-0.196,2.23,0.107,0.0211,-0.051,0.0793
CAAAAGC,0.017,0.0389,-0.285,-0.493,0.018,-1.01,0.122,0.0374,0.0742,-0.0907
TGATACA,0.0479,0.149,-1.52,-2.01,0.031,0.0458,-1.29,-0.552,0.131,-1.18
CAGGACC,0.118,0.072,0.282,0.768,0.136,0.432,0.0756,0.152,0.0271,0.25
GGTGATG,-0.00956,0.0358,0.237,0.78,-0.0119,1.4,0.0881,-0.0585,-0.109,-0.0677
TATACCA,-0.0437,-0.0199,0.0551,-2,0.0382,0.33,-0.263,-0.00434,0.0645,0.0968

Sequence,uncleaved DNA left (log2) [1],uncleaved DNA left (log2) [2],uncleaved DNA left (log2) [3],uncleaved DNA left (log2) [4],uncleaved DNA left (log2) [5],uncleaved DNA left (log2) [6],uncleaved DNA left (log2) [7],uncleaved DNA left (log2) [8],uncleaved DNA left (log2) [9],uncleaved DNA left (log2) [10]
GTACATA,-0.103,0.0775,0.442,1.11,-0.0203,1.78,0.0953,0.0393,-0.0937,0.139
ACAATGG,0.0433,0.0385,-0.686,-0.57,0.00695,-1.13,0.184,0.0428,0.0285,-0.0506
GTAAACT,0.0437,0.0922,0.317,0.583,0.01,1.72,0.104,0.118,0.0749,0.0635
CGATAGT,-1.17,0.0951,0.0766,0.0126,0.0153,0.274,-1.75,0.0401,0.0107,0.109
CCCATTC,0.0136,-0.044,-0.225,-0.312,-0.0207,-1.05,0.0736,-0.0978,-0.0582,-0.0479
AGCGGTG,0.0854,0.16,0.102,0.589,0.0212,1.56,0.234,0.211,0.1,0.0883
TGGGCAT,-0.00773,-0.0993,0.736,1.94,-0.195,2.14,0.0841,-0.11,-0.14,0.0413
AGAAGGG,0.072,-0.0139,-0.218,-0.131,0.0395,-0.725,0.254,0.0968,0.0899,-0.0182
CCACCTC,-0.0607,0.0225,0.105,-0.283,-0.108,0.213,-0.088,-0.0464,-0.0642,-0.138
ATTTCTC,-0.0383,-0.135,0.0166,-0.269,-0.00195,-0.72,-0.109,0.0102,-0.00732,0.0694
AGCGTAT,0.18,0.142,0.229,0.349,0.136,1.06,-0.156,0.0927,0.154,0.0781
GTTGGGT,-0.0831,-0.161,0.0594,0.595,-0.0619,0.585,-0.0389,0.0228,0.0416,-0.142
CAAACGC,-0.204,-0.096,-0.478,-0.767,-0.17,-1.1,0.0485,-0.206,-0.194,-0.14
TCAGATA,0.0876,-9.52e-05,0.0432,-0.692,0.0887,0.168,0.0867,0.15,0.0113,0.0562
TGTCCCT,-0.168,0.00782,0.126,-0.638,-0.141,0.638,-0.67,-0.17,0.00203,-0.0637
GGACCTT,0.0726,0.173,0.828,1.78,0.0852,2.28,0.203,-0.0293,0.164,0.207
GAACAAC,0.0549,0.115,0.408,-0.192,-0.00536,1.21,0.144,-0.00251,0.0201,0.177
CCAGAAA,-0.0227,0.0702,0.0197,-0.0469,0.0103,-0.5,0.0871,0.141,0.0708,0.102
CGTCAGA,-0.00518,-0.011,-0.0823,0.00542,0.0103,-0.532,-0.0367,0.0702,-0.0692,0.0943
CCTCTAG,0.194,0.163,-0.596,-0.515,0.0855,-0.997,0.231,0.145,0.0961,-0.127

Sequence,uncleaved DNA left (log2) [1],uncleaved DNA left (log2) [2],uncleaved DNA left (log2) [3],uncleaved DNA left (log2) [4],uncleaved DNA left (log2) [5],uncleaved DNA left (log2) [6],uncleaved DNA left (log2) [7],uncleaved DNA left (log2) [8],uncleaved DNA left (log2) [9],uncleaved DNA left (log2) [10]
TGGAGTG,-0.0503,-0.0988,-0.354,-0.262,-0.182,-0.429,0.0977,-0.146,-0.105,-0.0307
CGTAATA,-0.036,-0.0639,-0.106,-1.12,-0.0942,-0.325,-0.0759,-0.0142,-0.00895,-0.0816
GCCACCT,-0.0566,0.0208,0.0891,-1.07,-0.0864,0.165,-0.0796,-0.0427,-0.0679,0.0469
ACAAGAC,-0.0114,-0.00456,-0.044,0.349,0.0169,-0.636,0.0992,-0.0023,-0.182,-0.0214
ACCCCAA,-0.132,-0.0754,-0.144,-0.288,-0.0477,-0.417,-0.125,0.0459,-0.098,-0.00879
ACGTGAG,-0.0161,-0.0343,-0.679,-0.155,0.0707,-0.945,0.112,0.109,0.0713,-0.13
GCTTCGA,-0.013,-0.085,-0.32,-0.235,0.00714,-0.979,-0.0251,0.0291,0.0113,-0.0906
GCGTACT,-0.796,-0.22,-0.0534,-0.126,-0.342,1.28,-2.69,-0.211,-0.076,0.023
GCTTTTT,-1.59,-0.0544,0.136,-0.722,-0.0286,0.419,-2.45,0.0296,0.116,-0.158
GTGGAGA,0.105,0.0473,0.66,1.51,0.0206,1.78,0.16,0.203,0.125,0.209
TCAAATG,0.0635,0.0667,-0.211,-0.207,0.0373,-0.76,0.165,0.122,0.048,0.115
GTCATTG,-0.0469,0.0862,0.239,0.732,-0.0232,1.35,0.0838,0.105,0.0152,0.0401
TACACCA,0.00627,-0.065,-0.286,-2.39,-0.0605,-0.177,-0.314,-0.054,-0.0541,-0.0796
GCAAAGC,-0.0299,0.0822,-0.12,0.0248,-0.0131,-0.743,0.0801,0.0555,0.0133,0.0508
TCACAGA,0.0167,-0.122,-0.0667,-0.522,-0.0711,-0.76,0.13,0.0536,0.00913,0.0156
CCGGTAA,0.0614,0.0752,0.25,0.141,0.0412,0.525,0.141,-0.0571,0.0432,0.0255
TTCCTAG,0.0178,-0.0232,-0.604,-0.532,-0.163,-1.12,-0.056,-0.123,-0.062,-0.156
ATCTCCA,-0.0241,0.0602,-0.228,-0.283,0.0588,1.16,0.0417,-0.00689,0.0355,-0.0279
TTACTAT,0.0232,-0.0513,0.0444,-2.12,0.0439,-0.356,-0.294,-0.142,-0.000825,-0.0314
CGGATCC,0.0495,0.192,0.214,0.747,0.0565,0.7,0.217,0.136,0.184,0.175
